According to the supplement of paper PMC9446081:
About 220 (0.56%) of roughly 39,000 compounds showed activity. Some of the results follow.

System: Escherichia coli K-12 BW25113
Experiment: relative growth (OD600 normalised to plate interquartile mean) (fraction); higher = less growth inhibition, active = 0.2 or less
Details: 50 µM; LB; incubation time: overnight (16-24 h)
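Note: static incubation at 37 °C against the wild-type strain, values averaged over two biological replicates.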

| SMILES | relative growth |
| --- | --- |
| CN1CCN2c3ncccc3Cc3ccccc3C2C1 (centres undefined) | inactive: 0.988 |
| CO[C@@H]1CN(C)C(=O)c2ccc(NS(C)(=O)=O)cc2OC[C@@H](C)N(C(=O)C2CCCCC2)C[C@H]1C | inactive: 0.98 |
| Cc1noc(C)c1NC(=O)Nc1cccc2c1O[C@H](CN(C)Cc1ccc(Cl)c(Cl)c1)[C@H](C)CN([C@@H](C)CO)C2=O | inactive: 0.978 |
| C[C@H]1CCCCO[C@@H](CN(C)Cc2ccc(C(F)(F)F)cc2)[C@@H](C)CN([C@@H](C)CO)C(=O)c2cc(NC(=O)Nc3ccccc3)ccc2O1 | inactive: 1.02 |
| Cc1noc(C)c1NC(=O)N(C)C[C@H]1Oc2c(NC(=O)NC(C)C)cccc2C(=O)N([C@H](C)CO)C[C@H]1C | inactive: 0.99 |
| C[C@@H]1CCCCO[C@H](CN(C)C(=O)Nc2ccccc2)[C@H](C)CN([C@@H](C)CO)C(=O)c2cc(NC(=O)Nc3ccccc3)ccc2O1 | inactive: 1.03 |
| O=C(O)C1C(=CCO)OC2CC(=O)N21.[LiH] (centres undefined) | inactive: 0.912 |
| Cc1ccc(S(=O)(=O)Nc2cccc3c2O[C@@H](CN(C)Cc2ccc(-c4ccccc4)cc2)[C@H](C)CN([C@H](C)CO)C3=O)cc1 | inactive: 1.04 |
| O=C(C[C@H]1C=C[C@@H](NC(=O)Cc2ccccn2)[C@H](CO)O1)NCCc1ccncc1 | inactive: 0.895 |
| C[C@@H]1CN([C@@H](C)CO)C(=O)c2cc(NC(=O)CCC(F)(F)F)ccc2O[C@@H](C)CCCCO[C@@H]1CN(C)Cc1ccc2c(c1)OCO2 | inactive: 1.01 |
| Cn1c(O)cc(=O)n(C)c1=O | inactive: 1 |
| C[C@@H]1CCCCO[C@H](CN(C)C(=O)Nc2ccc(F)cc2)[C@@H](C)CN([C@H](C)CO)C(=O)c2cc(NS(=O)(=O)c3ccc(Cl)cc3)ccc2O1 | inactive: 0.933 |
| C[C@@H]1CCCCO[C@@H](CN(C)CC2CCCCC2)[C@H](C)CN([C@H](C)CO)C(=O)c2cc(NC(=O)C3CCCCC3)ccc2O1 | inactive: 1.01 |
| C[C@H](CO)N1C[C@H](C)[C@H](CN(C)Cc2ccc(C(F)(F)F)cc2)Oc2ccc(NS(=O)(=O)c3ccc(Cl)cc3)cc2C1=O | inactive: 1.01 |
| COc1ccccc1CNC(=O)C[C@H]1C[C@H]2c3cc(NC(=O)Nc4ccc(C(F)(F)F)cc4)ccc3O[C@H]2[C@@H](CO)O1 | inactive: 1.01 |
| CC1(C)CC[C@]2(C(=O)O[C@H]3O[C@@H](CO)[C@@H](O)[C@@H](O)[C@@H]3O)CC[C@]3(C)C(=CC[C@H]4[C@@]5(C)C[C@@H](O)[C@H](O[C@H]6O[C@H](C(=O)O)[C@@H](O)[C@@H](O)[C@@H]6O)C(C)(C)[C@@H]5CC[C@]43C)[C@@H]2C1 | inactive: 0.992 |
| C[C@@H]1CN([C@@H](C)CO)C(=O)c2c(c3ccccc3n2C)-c2ccccc2CO[C@@H]1CN(C)S(=O)(=O)c1ccc(C(F)(F)F)cc1 | inactive: 1.02 |
| C[C@@H]1CN([C@@H](C)CO)C(=O)c2cc(-c3ccncc3)cnc2O[C@H]1CN(C)S(=O)(=O)c1ccccc1 | inactive: 0.979 |
| C[C@@H]1CN([C@H](C)CO)C(=O)c2cc(-c3cccc(C(=O)N(C)C)c3)cnc2O[C@@H]1CN(C)C(=O)Cc1ccccn1 | inactive: 0.998 |
| C[C@H](CO)N1C[C@H](C)[C@@H](CN(C)C(=O)NC2CCCCC2)OCCCC[C@H](C)Oc2ccc(NC(=O)Nc3ccc(C(F)(F)F)cc3)cc2C1=O | inactive: 0.988 |

| SMILES | relative growth |
| --- | --- |
| O=C(Nc1ccc(-c2ccccc2)cc1)[C@H]1C[C@@H]1c1ccccc1 | inactive: 1.06 |
| C[C@H](CO)N1C[C@H](C)[C@H](CN(C)Cc2ccc3c(c2)OCO3)OCCCC[C@H](C)Oc2ccc(NS(=O)(=O)c3ccc(Cl)cc3)cc2C1=O | inactive: 1.01 |
| COc1ccc(NC(=O)N(C)C[C@H]2OCCCC[C@H](C)Oc3ccc(NC(=O)Cc4ccccc4)cc3C(=O)N([C@H](C)CO)C[C@H]2C)cc1 | inactive: 1.02 |
| CO[C@@H]1CN(C)C(=O)c2cc(NS(=O)(=O)CC(F)(F)F)ccc2OC[C@H](C)N(Cc2nccs2)C[C@@H]1C | inactive: 0.999 |
| C[C@H](CO)N1C[C@H](C)[C@H](CN(C)C(=O)Nc2ccc(F)cc2)Oc2c(NC(=O)c3cnccn3)cccc2C1=O | inactive: 1 |
| OC[C@H]1O[C@H](n2cnc3cncnc32)[C@@H](O)[C@@H]1O | inactive: 0.973 |
| C[C@H]1CN([C@@H](C)CO)C(=O)Cc2cc(NC(=O)Cn3cnnn3)ccc2O[C@H]1CN(C)S(=O)(=O)c1ccccc1 | inactive: 0.994 |
| O=C1CC[C@H](C(=O)O)N1 | inactive: 1.01 |
| C[C@@H]1CN([C@H](C)CO)C(=O)c2cc(NS(=O)(=O)c3cn(C)cn3)ccc2O[C@H]1CN(C)CC1CCCCC1 | inactive: 0.988 |
| C[C@@H]1CN([C@@H](C)CO)C(=O)Cc2cc(NC(=O)Nc3ccc(C(F)(F)F)cc3)ccc2O[C@@H]1CN(C)Cc1ccc(Oc2ccccc2)cc1 | inactive: 1.02 |
| Cc1noc(C)c1NC(=O)N(C)C[C@H]1OCCCC[C@@H](C)Oc2ccc(NC(=O)Cc3ccccc3)cc2C(=O)N([C@@H](C)CO)C[C@@H]1C | inactive: 1.01 |
| C[C@@H]1CCCCO[C@H](CN(C)C(=O)Nc2ccc(F)cc2)[C@@H](C)CN([C@H](C)CO)C(=O)c2cc(NC(=O)Nc3cccc4ccccc34)ccc2O1 | inactive: 1.04 |
| Cc1ccccc1S(=O)(=O)N1C[C@@H](O)COC[C@H]2O[C@H](CC(=O)NCCc3ccncc3)CC[C@@H]21 | inactive: 0.983 |
| O=C(C[C@@H]1C[C@@H]2c3cc(NS(=O)(=O)c4ccc(F)cc4)ccc3O[C@@H]2[C@H](CO)O1)NCCc1ccccc1 | inactive: 1.04 |
| CN1CCN(C(=O)C[C@@H]2CC[C@H]3[C@@H](COC[C@@H](O)CN3S(=O)(=O)c3cccc(Cl)c3)O2)CC1 | inactive: 1.03 |
| COc1cccc(-c2cnc3c(c2)C(=O)N([C@H](C)CO)C[C@H](C)[C@H](CN(C)S(=O)(=O)c2ccc(F)cc2)O3)c1 | inactive: 1 |
| C[C@@H]1CCCCO[C@@H](CN(C)Cc2ccc(C(F)(F)F)cc2)[C@@H](C)CN([C@@H](C)CO)C(=O)c2cc(NS(=O)(=O)c3ccccc3)ccc2O1 | inactive: 1.04 |
| COc1cccc(S(=O)(=O)N2C[C@H](O)COC[C@@H]3O[C@H](CC(=O)N4CCN(c5ccccc5)CC4)CC[C@H]32)c1 | inactive: 1.02 |
| NCCCCCNC(=O)[C@@H]1C[C@@H]2C(=O)NCC(=O)N2[C@@H]1c1cccc(OCCO)c1 | inactive: 1.01 |
| Cc1cc(C(=O)Nc2ccc3c(c2)C(=O)N(C)[C@H]2CC[C@H](CC(=O)NCC(F)(F)F)O[C@@H]2CO3)no1 | inactive: 1 |

| SMILES | relative growth |
| --- | --- |
| C[C@H](CO)N1C[C@H](C)[C@@H](CN(C)C(=O)Nc2ccc3c(c2)OCO3)Oc2ccc(NC(=O)c3ccncc3)cc2CC1=O | inactive: 0.963 |
| Cc1ccc(S(=O)(=O)Nc2cccc3c2O[C@H](CN(C)S(=O)(=O)c2ccc(F)cc2)[C@H](C)CN([C@H](C)CO)C3=O)cc1 | inactive: 0.986 |
| C[C@H](CO)N1C[C@H](C)[C@H](CN(C)C(=O)CN2CCOCC2)Oc2ncc(-c3cncnc3)cc2C1=O | inactive: 0.983 |
| C[C@@H]1CCCCO[C@H](CN(C)Cc2ccc(Cl)c(Cl)c2)[C@@H](C)CN([C@H](C)CO)C(=O)c2cc(NC(=O)Nc3ccccc3)ccc2O1 | inactive: 1.06 |
| COc1ccc(NC(=O)Nc2ccc3c(c2)C(=O)N([C@H](C)CO)C[C@@H](C)[C@@H](CN(C)C(=O)C2CCCCC2)OCCCC[C@H](C)O3)cc1 | inactive: 1 |
| C[C@@H]1CCCCO[C@H](CN(C)C(=O)C2CCCCC2)[C@@H](C)CN([C@@H](C)CO)C(=O)c2cc(NC(=O)CCC(F)(F)F)ccc2O1 | inactive: 1 |
| C[C@H](CO)N1C[C@H](C)[C@@H](CN(C)C(=O)Nc2ccc3c(c2)OCO3)Oc2c(NS(=O)(=O)c3cn(C)cn3)cccc2C1=O | inactive: 0.984 |
| COc1ccc(NC(=O)Nc2ccc3c(c2)CC(=O)N([C@H](C)CO)C[C@H](C)[C@@H](CN(C)Cc2ccc(-c4ccccc4)cc2)O3)cc1 | inactive: 0.982 |
| COC(=O)c1c(C)c2c(c(C)c1OC)OC(=O)c1c(C)c(Cl)c(OC)c(Cl)c1O2 | inactive: 1.17 |
| CN1CC2(COC2)OCCS1(=O)=O | inactive: 0.978 |
| NCC(=O)N1C[C@H](NC(=O)c2ccccc2)C[C@H]1C(=O)O | inactive: 0.994 |
| C[C@@H]1CN([C@H](C)CO)C(=O)Cc2cc(NC(=O)C3CCCCC3)ccc2O[C@H]1CN(C)S(=O)(=O)c1cn(C)cn1 | inactive: 0.996 |
| Clc1ccc2sc(Sc3ccccc3)nc2c1 | inactive: 0.985 |
| C[C@@H]1CCCCO[C@@H](CN(C)Cc2ccc3c(c2)OCO3)[C@@H](C)CN([C@@H](C)CO)C(=O)c2cc(NS(=O)(=O)c3ccc(F)cc3)ccc2O1 | inactive: 0.983 |
| C[C@H](CO)N1C[C@H](C)[C@@H](CN(C)S(=O)(=O)c2cccs2)OCCCC[C@H](C)Oc2ccc(NC(=O)Nc3cccc4ccccc34)cc2C1=O | inactive: 1.04 |
| C[C@H](NC(=O)c1c(N)nn2cccnc12)c1cc2cccc(C#Cc3cnn(C)c3)c2c(=O)n1-c1ccccc1 | inactive: 1.03 |
| Cc1ccc(C(=O)NCCN2CCNC2=O)cc1 | inactive: 0.973 |
| C[C@@H]1CCCCO[C@H](CN(C)Cc2ccccc2)[C@H](C)CN([C@H](C)CO)C(=O)c2cc(NC(=O)Nc3cccc4ccccc34)ccc2O1 | inactive: 1.02 |
| CN(C)CCCCCCNC(=O)[C@H]1C[C@H]2C(=O)N3CCC[C@H]3C(=O)N2[C@H]1c1cccc(OCCO)c1 | inactive: 1.01 |
